According to the supplement of paper PMC6089552:
Screen size: about 3,200 compounds; about 300 (9.4%) showed activity. Only a part is listed here, and it is no random draw.

Test system: A673/TR/shEF
Assay: cell viability (LOESS-normalised, relative to median of negative controls) (log2 ratio); higher = more viable cells (less compound effect), active = hit call of the paper (over 3 MAD below the median)
Settings: treatment time: 72 h
Method in brief: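 A673/TR/shEF Ewing sarcoma cells (1,500 per well, 384-well plates) were grown with or without doxycycline to induce EWS-FLI1 shRNA knockdown, starting 24 h before compounds. Library compounds at two or more concentrations, with DMSO controls, were added for three days. Cell viability was read by CellTiter-Glo luminescence on an Envision reader, then LOESS-corrected per plate, divided by the median of negative controls and log2-transformed. Hits were wells at least three median absolute deviations from the median of all screened wells.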

[1] = 0.25 µM, library screen: screen1, EWS-FLI1 expression: high (no doxycycline)
[2] = 0.25 µM, library screen: screen1, EWS-FLI1 expression: low (doxycycline-induced shRNA knockdown)
[3] = 2.5 µM, library screen: screen1, EWS-FLI1 expression: high (no doxycycline)
[4] = 2.5 µM, library screen: screen1, EWS-FLI1 expression: low (doxycycline-induced shRNA knockdown)
[5] = 0.25 µM, library screen: screen2, EWS-FLI1 expression: high (no doxycycline)
[6] = 0.25 µM, library screen: screen2, EWS-FLI1 expression: low (doxycycline-induced shRNA knockdown)
[7] = 2.5 µM, library screen: screen2, EWS-FLI1 expression: high (no doxycycline)
[8] = 2.5 µM, library screen: screen2, EWS-FLI1 expression: low (doxycycline-induced shRNA knockdown)
[9] = 0.103 µM, library screen: screen3, EWS-FLI1 expression: high (no doxycycline)
[10] = 0.103 µM, library screen: screen3, EWS-FLI1 expression: low (doxycycline-induced shRNA knockdown)
[11] = 0.308 µM, library screen: screen3, EWS-FLI1 expression: high (no doxycycline)
[12] = 0.308 µM, library screen: screen3, EWS-FLI1 expression: low (doxycycline-induced shRNA knockdown)
[13] = 0.926 µM, library screen: screen3, EWS-FLI1 expression: high (no doxycycline)
[14] = 0.926 µM, library screen: screen3, EWS-FLI1 expression: low (doxycycline-induced shRNA knockdown)
[15] = 2.8 µM, library screen: screen3, EWS-FLI1 expression: high (no doxycycline)
[16] = 2.8 µM, library screen: screen3, EWS-FLI1 expression: low (doxycycline-induced shRNA knockdown)
[17] = 8.3 µM, library screen: screen3, EWS-FLI1 expression: high (no doxycycline)
[18] = 8.3 µM, library screen: screen3, EWS-FLI1 expression: low (doxycycline-induced shRNA knockdown)
[19] = 25 µM, library screen: screen3, EWS-FLI1 expression: high (no doxycycline)
[20] = 25 µM, library screen: screen3, EWS-FLI1 expression: low (doxycycline-induced shRNA knockdown)

Measured: cell viability (log2)

O=C(O)c1ccc(OC2CSC2)cc1
inactive: [1] -0.0489 | [2] 0.0317 | [3] 0.0805 | [4] 0.0727

O=S(=O)(O)C1CCNCC1
inactive: [5] 0.301 | [6] 0.132 | [7] 0.235 | [8] 0.104

COC(=O)[C@H](c1ccccc1Cl)N1CCc2sccc2C1
inactive: [9] -0.0292 | [10] -0.0575 | [1] 0.0125 | [2] 0.0195 | [11] 0.0719 | [12] 0.00209 | [13] 0.00906 | [14] 0.116 | [3] 0.0801 | [4] -0.0426 | [15] 0.144 | [16] 0.0581 | [17] -0.00472 | [18] 0.0633 | [19] 0.0377 | [20] 0.114

C[C@]12CCC(=O)C=C1CC[C@@H]1[C@@H]2C(=O)C[C@@]2(C)[C@H]1CC[C@]2(O)C(=O)CO
inactive: [1] 0.0836 | [2] 0.0764 | [5] 0.16 | [6] 0.0585 | [3] 0.142 | [4] 0.067 | [7] 0.112 | [8] 0.0827

COCCCC/C(=N\OCCN)c1ccc(C(F)(F)F)cc1
inactive: [5] 0.0374 | [6] -0.0394 | [7] 0.0814 | [8] 0.00912

C[C@@H]1CC[C@H]2C(C)(C)[C@H]3C[C@@]12CC[C@@]3(C)O
inactive: [1] -0.00565 | [2] -0.0471 | [3] -0.0433 | [4] 0.0591

Cc1c(Cl)cccc1Nc1ccccc1C(=O)O
inactive: [1] 0.0842 | [2] -0.0167 | [3] 0.146 | [4] -0.0951

COc1cc(C)c(C(=O)O)c(O)c1
inactive: [1] 0.0224 | [2] 0.0265 | [3] 0.0516 | [4] -0.0134

Cc1ccc(N(CC2=NCCN2)c2cccc(O)c2)cc1
inactive: [1] 0.0993 | [2] 0.033 | [5] 0.301 | [6] 0.0826 | [3] 0.164 | [4] 0.142 | [7] 0.319 | [8] 0.168

CNC(=O)[C@H]1O[C@@H](n2cnc3c(N)ncnc32)[C@H](O)[C@@H]1O
inactive: [5] 0.133 | [6] 0.153 | [7] 0.0199 | [8] 0.101

CCc1ccc(CCOc2ccc(CC3SC(=O)NC3=O)cc2)nc1 (configuration not stated)
inactive: [1] -0.0419 | [2] 0.0243 | [3] 0.0652 | [4] 0.0733

c1ccc(CC2=NCCN2)cc1
inactive: [1] 0.0668 | [2] 0.137 | [3] 0.131 | [4] 0.191

NCCCCC(=O)O
active: [5] -0.118

COc1c(O)cc2occ(-c3ccc(O)cc3)c(=O)c2c1O
inactive: [1] 0.15 | [2] 0.0261 | [3] 0.0979 | [4] 0.0895

OCCN1CCN(CCCN2c3ccccc3Sc3ccc(C(F)(F)F)cc32)CC1
inactive: [1] 0.123 | [2] -0.116 | [5] 0.0872 | [6] 0.0735 | [3] 0.0717 | [4] 0.0734 | [7] 0.0281 | [8] 0.0587

CC(C)(Oc1ccc(CCNC(=O)c2ccc(Cl)cc2)cc1)C(=O)O
inactive: [1] 0.103 | [2] 0.0276 | [3] 0.165 | [4] 0.0799

CC1=CC(=O)[C@H]2C(C)(C)CCC[C@]2(C)[C@@]1(O)CCc1ccoc1
inactive: [1] 0.0791 | [2] 0.0513 | [3] 0.195 | [4] 0.0373

O=C(c1cc(Cc2n[nH]c(=O)c3ccccc23)ccc1F)N1CCN(C(=O)C2CC2)CC1
inactive: [9] -0.00614 | [10] 0.0146 | [11] -0.0732 | [12] -0.0144 | [13] 0.00937 | [14] 0.0508 | [15] -0.137 | [16] 0.0104 | [17] -0.158 | [18] -0.00135
active: [19] -0.244 | [20] -0.143

O=C1c2ccccc2C(=O)C1c1ccccc1
inactive: [1] 0.00829 | [2] 0.109 | [3] 0.0875 | [4] 0.204

CC(C)N=C(N)/N=C(\N)Nc1ccc(Cl)cc1
inactive: [1] 0.128 | [2] 0.0586 | [3] 0.107 | [4] 0.132

Clc1ccc2c(c1)C(N1CCNCC1)=Nc1ccccc1O2
inactive: [1] 0.113 | [2] 0.0477 | [5] 0.153 | [6] 0.0853 | [3] 0.0833 | [4] -0.127 | [7] 0.0223 | [8] 0.0703

O=C(O)CCc1nc(-c2ccccc2)c(-c2ccccc2)o1
inactive: [5] 0.166 | [6] 0.0807 | [7] 0.142 | [8] 0.114

CC(=O)O[C@H]1CC2(C)[C@@H](C[C@@H](O)[C@H]3[C@@]4(C)CC[C@@H](O)[C@@H](C)[C@@H]4CC[C@@]32C)/C1=C(/CCC=C(C)C)C(=O)O (some centres not stated)
inactive: [5] 0.0714 | [6] 0.0604 | [7] 0.159 | [8] 0.0152

CC(C(=O)O)c1ccc(CC2CCCC2=O)cc1 (configuration not stated)
inactive: [5] 0.142 | [6] 0.0493 | [7] 0.161 | [8] 0.0774

OCC1OC(O)C(O)C(O)C1O (configuration not stated)
inactive: [9] 0.00138 | [10] 0.0347 | [11] 0.0849 | [12] 0.0509 | [13] 0.0635 | [14] 0.0529 | [15] 0.0615 | [16] 0.0566 | [17] 0.0472 | [18] -0.0279 | [19] 0.168 | [20] 0.04

CC[C@H]1OC(=O)[C@H](C)[C@@H](O[C@H]2C[C@@](C)(OC)[C@@H](O)[C@H](C)O2)[C@H](C)[C@@H](O[C@@H]2O[C@H](C)C[C@H](N(C)C)[C@H]2O)[C@](C)(O)C[C@@H](C)C(=O)[C@H](C)[C@@H](O)[C@]1(C)O
inactive: [9] 0.134 | [10] 0.0254 | [1] 0.0382 | [2] 0.0038 | [11] 0.123 | [12] 0.118 | [13] 0.0939 | [14] 0.143 | [3] 0.0708 | [4] 0.0495 | [15] 0.149 | [16] 0.0858 | [17] 0.16 | [18] 0.114 | [19] 0.0894 | [20] 0.171
